In article PMC4336329 (PLoS ONE, 2015):
About 2,200 (0.71%) of roughly 310,000 compounds showed an effect of 50% or more. Effects have a minus sign here. The list shows a part of the results.

These compounds were tested against human ether-à-go-go-related gene (hERG) potassium channel (human, UniProt Q12809) (assay: primary screen, population patch clamp on CHO cells stably expressing hERG).
human ether-à-go-go-related gene (hERG) potassium channel, sequence (Q12809 whole entry, looked up): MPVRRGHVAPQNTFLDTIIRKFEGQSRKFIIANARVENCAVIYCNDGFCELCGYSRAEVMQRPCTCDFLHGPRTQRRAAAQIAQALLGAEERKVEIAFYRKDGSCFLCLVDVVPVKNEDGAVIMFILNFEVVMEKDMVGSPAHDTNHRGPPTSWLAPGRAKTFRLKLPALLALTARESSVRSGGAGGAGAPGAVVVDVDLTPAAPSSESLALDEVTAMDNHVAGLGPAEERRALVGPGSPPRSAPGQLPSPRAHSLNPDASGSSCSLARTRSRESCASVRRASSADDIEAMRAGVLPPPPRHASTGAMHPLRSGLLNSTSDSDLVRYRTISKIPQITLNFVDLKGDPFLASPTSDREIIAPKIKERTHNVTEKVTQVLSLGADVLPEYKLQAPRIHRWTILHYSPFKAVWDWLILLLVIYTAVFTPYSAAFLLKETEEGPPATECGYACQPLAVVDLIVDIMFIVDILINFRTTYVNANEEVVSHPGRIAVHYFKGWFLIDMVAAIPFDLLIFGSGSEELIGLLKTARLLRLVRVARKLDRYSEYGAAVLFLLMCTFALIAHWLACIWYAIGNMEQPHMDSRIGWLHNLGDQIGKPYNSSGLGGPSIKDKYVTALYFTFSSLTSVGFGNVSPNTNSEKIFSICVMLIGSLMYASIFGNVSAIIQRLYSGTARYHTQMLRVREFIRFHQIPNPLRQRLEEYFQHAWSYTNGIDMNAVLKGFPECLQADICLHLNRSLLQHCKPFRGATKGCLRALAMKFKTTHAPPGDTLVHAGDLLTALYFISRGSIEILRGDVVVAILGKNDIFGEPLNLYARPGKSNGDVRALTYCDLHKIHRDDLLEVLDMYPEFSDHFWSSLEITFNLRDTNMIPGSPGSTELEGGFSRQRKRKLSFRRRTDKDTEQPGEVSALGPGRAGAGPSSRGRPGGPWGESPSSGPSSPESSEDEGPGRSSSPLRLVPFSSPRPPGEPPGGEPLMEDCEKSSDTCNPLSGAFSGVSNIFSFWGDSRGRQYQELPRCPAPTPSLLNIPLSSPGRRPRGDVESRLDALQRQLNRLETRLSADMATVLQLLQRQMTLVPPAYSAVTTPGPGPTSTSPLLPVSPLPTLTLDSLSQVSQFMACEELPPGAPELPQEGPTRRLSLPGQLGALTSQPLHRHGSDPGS

SMILES	hERG current change (%, negative = inhibition) at 1uM [%]
O=C(NCc1cccs1)C1CC1	10.1
COc1ccc(C)cc1S(=O)(=O)N(C)CC(=O)N1CCCC1	13.4
COc1ccccc1CNC(=O)CCS(=O)(=O)c1ccc2c(c1)CC(C)N2C(=O)C1CC1 (stereo not shown)	12.4
COc1ccc(C2C(C#N)=C(N)OC3=C2C(=O)CCC3)c(OC)c1OC (stereo not shown)	1.32
O=C(c1ccco1)N1CCN(S(=O)(=O)Cc2ccccc2Cl)CC1	0.503
COc1ccc(Cc2nnc(SCC(=O)c3ccccc3)o2)cc1	6.46
O=C(NCCCN1CCCC1=O)Nc1ccc(Br)cc1Cl	2.47
CCN(C(=O)COC(=O)C1=COCCO1)c1ccccc1	10.4
Cc1cccc(OCC(=O)NCCCNC(=O)c2ccc(C)nc2)c1	18
Cl.Fc1ccccc1COc1ccccc1CNCc1ccncc1	0.737
COc1ccc(CNC(=O)C(=O)NC2CCC(C)CC2)cc1 (stereo not shown)	10.8
CC(=O)NCCNC(=O)c1ccc(-n2c(C)ccc2C)cc1	10.7
CNC(=O)CSc1nnnn1CCCOC	2.02
CC1Cc2ccccc2N1C(=S)NC(=O)c1cccc(Br)c1 (stereo not shown)	7.01
CC(C)(C)c1ccc(S(=O)(=O)N2CCN(CC(=O)N3CC(=O)Nc4ccccc43)CC2)cc1	7.09
COc1ccc(C(=O)NCCc2ccc(F)cc2)cc1OC	12.6
C[C@H](NC(=O)c1nc[nH]c1C(=O)N[C@@H](C)C(=O)OCc1ccccc1)C(=O)OCc1ccccc1	0.675
COc1ccc(N2CCN(C(=O)Cc3ncc(C(F)(F)F)cc3Cl)CC2)cc1	-10.4
CC1(C)Oc2ccc(C(=O)NC3CCCC3)cc2N(CC(=O)NC2CCCC2)C1=O	-6.77
CC(Oc1ccccc1)c1ccnn1S(=O)(=O)c1ccccc1 (stereo not shown)	18.7

SMILES	hERG current change (%, negative = inhibition) at 1uM [%]
COc1ccccc1-c1nnc(SCC(=O)Nc2ccc3[nH]c(=O)[nH]c3c2)n1N	12.6
CCCS(=O)(=O)N1CCCC(C(=O)c2cccc(Cl)c2)C1 (stereo not shown)	3.86
CC(C)(C)NC(=O)CSc1nc2scc(-c3ccccc3)c2c(=O)[nH]1	14.3
COc1ccccc1N1CCN(C(=O)COc2ccc(Cl)cc2Br)CC1	1.07
Cc1ccsc1/C=C1/NC(=O)N(Cc2ccc(F)cc2)C1=O	6.45
O=C(CCCOc1ccc(Cl)cc1Cl)NNC(=O)C1CCC1	11.3
COc1cccc(C(=O)C2CCCN(Cc3c(C)n(C)n(-c4ccccc4)c3=O)C2)c1 (stereo not shown)	8.32
O=C(CSc1n[nH]c(-c2cccs2)n1)NCCc1ccccc1	-0.0149
S=C([S-])N1CCCC1.[NH4+]	17.4
CCCc1cc(=O)n2[nH]c(NCc3ccc(Cl)cc3Cl)nc2n1	7.27
O=C(CSc1nncs1)NCc1ccc2c(c1)OCO2	12.7
Cc1ccc(N(C(=O)c2ccc(Br)o2)C2C=CS(=O)(=O)C2)cc1 (stereo not shown)	7.95
COC(=O)C1CCN(C(=O)COC(=O)c2oc3ccc(OC)cc3c2C)CC1	6.1
C#CC1(O)C=CC2C3CCC4=CC(=O)CCC4C3CCC21CC (stereo not shown)	-7.58
Cc1cccc(C)c1-n1nnnc1S(=O)(=O)Cc1ccccc1Cl	6.1
COc1ccccc1C1=NN(C(=S)Nc2ccccc2)C(c2ccco2)C1 (stereo not shown)	13
CN(C)C(=O)CSc1nnc([C@H](Cc2ccccc2)NC(=O)OC(C)(C)C)o1	10.2
COc1cccc(NC(=O)COC(=O)CCS(=O)(=O)c2ccc(C)cc2)c1	12.1
COc1ccc(Nc2nc(C)c(-c3ccccc3)s2)cc1	2.24
CCC(C)(C)NC(=O)C(c1cccc(OC)c1OC)N(C(=O)CCC(=O)Nc1cc(C)on1)C(C)C (stereo not shown)	13.1

SMILES	hERG current change (%, negative = inhibition) at 1uM [%]
O=C(O)c1ccc2c(c1)S(=O)(=O)N=C1CCCCCN12	15.6
ONC(=Nc1ccccc1Cl)c1c(F)cccc1F	10.5
COc1ccc(-c2[nH]ncc2CN2CCN(C(=O)c3cccs3)CC2)c(F)c1	3.62
Nc1[nH]ncc1N=Nc1ccc(Cl)cc1	16.1
C=CCn1c(SCc2ccccc2C#N)nnc1-c1cc(Br)ccc1O	8.74
COc1ccccc1-c1nc(C#N)c(N2CCCCCC2)o1	5.38
COc1ccc(CCCC(=O)NCCc2ccccc2)c(C)c1	15.3
Cn1c(SCC(=O)Nc2ccc(Cl)cc2F)nnc1-c1ccco1	-0.388
CN(C)C(CNC(=O)c1cccc(OC(F)F)c1)c1ccco1 (stereo not shown)	6.93
O=C(/C=C/c1cccc([N+](=O)[O-])c1)NCc1ccccc1	5.81
COc1ccc(CNn2c(-c3cccc(C)c3)nc3ccccc3c2=O)cc1OC	-54.8
Cc1cc(C)cc(N(C(=O)c2ccc3c(c2)OCO3)C2C=CS(=O)(=O)C2)c1 (stereo not shown)	8.67
CCOC(=O)Nc1ccc([N+](=O)[O-])cc1OC	11.7
COc1ccc(Cl)cc1NC(=O)[C@@H]1CCCN1C(=O)c1cccs1	11.2
Cc1nnc(NS(=O)(=O)c2ccc(Br)cc2)s1	18.1
COc1ccc(NS(=O)(=O)c2ccc(N3CCOCC3)c(NC(=O)c3ccc(OC)cc3)c2)cc1	5.83
CC(C)c1ccc(/C=C(\c2nc3ccccc3[nH]2)S(=O)(=O)c2ccccc2)cc1	15.3
Cl.OC(COc1ccc(Cl)cc1Cl)CN1CCc2ccccc2C1 (stereo not shown)	3.76
